Source: PubChem BioAssay AID2546 (National Center for Advancing Translational Sciences (NCATS), 2010)
The whole screen tested about 310,000 compounds, of which about 11,000 (3.5%) were called active. This list was built around the results that the source calls inconclusive (neither active nor inactive); the mix of calls is not that of the screen. Calls come from the whole dose curve; as a rule, active = well fitted inhibition curve with a large enough effect; inconclusive = small, poorly fitted or top-dose-only effect, or effect the other way; inactive = flat fitted curve, though single readings scatter. No potency is given beside an inconclusive call; the fits are too rough.

Assay: VP16 counterscreen qHTS for inhibitors of ROR gamma transcriptional activity;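 note: Gal4-VP16 expression switched on by copper sulfate through the metallothionein promoter; nearly all actives have a fitted effect of over 50% in size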
Conditions: Drosophila S2 Gal4-VP16 UAS-luciferase, luminescence, 20 h; series mostly up to 53.6 µM
Potency is the fitted concentration of half-maximal effect; tags give direction and shape of the fitted curve.

SMILES | Potency
O=C(N1CCOCC1)N1c2ccccc2CC(N2CCOCC2)c2ccccc21 (stereo not drawn) | inconclusive [inhibitor, single point]
CCOC(=O)N1CCN(C(=O)CN(c2ccc(C)cc2)S(=O)(=O)c2c(C)noc2C)CC1 | inactive
CN(C(=O)CN1C(=O)/C(=C/c2ccc(Cl)cc2)SC1=S)C1CCS(=O)(=O)C1 (stereo not drawn) | inactive
CN1C(=O)C(CC(=O)Nc2ccc(Cl)cc2)N(Cc2ccco2)C1=S (stereo not drawn) | inconclusive [inhibitor, single point]
CC(C)(C)c1ccc(C(=O)NNC(=O)c2cccc(Br)c2)cc1 | inconclusive [inhibitor, partial curve]
Cc1[nH]nc2c1C(c1ccsc1)C1=C(CC(C)(C)CC1=O)N2 (stereo not drawn) | inconclusive [activator, single point]
CCN(CC)C(=S)Nc1ccc(Cl)c(Cl)c1 | inconclusive [inhibitor, single point]
Cc1nc2scc(-c3ccc(C(C)(C)C)cc3)c2c(=O)n1N | inconclusive [inhibitor, single point]
CC(=O)Nc1ccc(NC(=O)CSc2nnc(NC(=O)c3ccc(Br)o3)s2)cc1 | active: 11.2 µM
O=C(N/N=C\c1cc(Br)c(Br)o1)C1COc2ccccc2O1 (stereo not drawn) | inconclusive [inhibitor, single point]
Fc1ccccc1C1c2cccn2CCN1C(=S)Nc1cccc(Br)c1 (stereo not drawn) | inconclusive [inhibitor, single point]
CC(Sc1cccc[n+]1[O-])c1ccccc1 (stereo not drawn) | inactive
Cc1ccc(NC(=S)NN(C)c2nc(C)cnc2C)cc1 | inconclusive [inhibitor, single point]
COc1ccc(-c2cc(-c3cc(OC)ccc3O)[nH]n2)cc1 | inconclusive [inhibitor, partial curve]
COc1cccc2c1C(=O)c1c(O)c3c(c(O)c1C2=O)C[C@@](O)(C(=O)CO)C[C@@H]3O[C@@H]1C[C@H](N)[C@H](O)[C@H](C)O1 | active: 7.94 µM
CCOC(=O)C1C(C(=O)OC)=C(c2ccc(F)cc2)c2ccc(OC)cc2N1S(=O)(=O)C(F)(F)F (stereo not drawn) | inactive
N#Cc1nc(-c2ccco2)oc1NCCc1ccccc1 | inconclusive [activator, full curve, poor fit]
COc1cc(OC)c(/C=N/NC(N)=S)cc1Br | inconclusive [inhibitor, single point]
CC(=O)c1cccc(NS(=O)(=O)c2ccc(-c3cc(C)no3)s2)c1 | inconclusive [inhibitor, single point]
O=[N+]([O-])/C(C=Nc1ccccc1O)=C\Nc1ccccc1O | inconclusive [inhibitor, partial curve]
O=C(NNS(=O)(=O)c1ccc([N+](=O)[O-])cc1)C1CCCCC1 | inactive
C/C(=N\NC(=S)NCCc1ccccc1)c1cccc(Br)c1 | inconclusive [inhibitor, single point]
COc1ccc(-c2csc(NC(=O)COC(=O)c3ccco3)n2)cc1 | inconclusive [activator, single point]
COc1ccc(-c2c[n+]3c(n2-c2ccccc2)CCCCC3)cc1 | inconclusive [inhibitor, single point]
COc1cc(/C=N/N=C(/N)c2nonc2N)cc(Br)c1OCc1ccccc1C | inconclusive [inhibitor, single point]

SMILES | Potency
CC(C)C(C(=O)O)N1C(=O)/C(=C/c2ccc(Br)cc2)SC1=S (stereo not drawn) | inconclusive [activator, full curve]
Cc1c(NC(=O)c2cnn3c2NC(c2ccccc2)CC3C(F)(F)F)c(=O)n(-c2ccccc2)n1C (stereo not drawn) | inactive
N#C/C(=C\c1ccc(C#N)cc1)C(=O)c1ccccc1 | inconclusive [inhibitor, single point]
Cc1cc2c(cc1C)-c1nnnn1C(C)(C)C2 | inactive
CN(C)CCC=C1c2ccccc2C=Cc2ccccc21 | inactive
CC(C)Nc1nc(NC(C)C)nc(N(C#N)CCOc2ccc(Cl)cc2Cl)n1 | inconclusive [inhibitor, single point]
C[C@H](NC(=O)C1CC(=O)N(c2ccc(F)cc2)C1)C(=O)N1CCCCC1 (stereo partly drawn) | inactive
Cn1c(=O)c2c(nc(Br)n2Cc2c(F)cccc2Cl)n(C)c1=O | inconclusive [inhibitor, full curve, poor fit]
CCCc1ccc(OC(=O)c2cccs2)cc1 | inactive
COc1ccc(C2CC(c3ccccc3)=NN2c2ccc(/C=N/NC(=O)c3ccncc3)cc2)cc1 (stereo not drawn) | active: 7.08 µM
O=C(N/N=C/c1cccc(Cl)c1)C(c1ccncc1)N1CCOCC1 (stereo not drawn) | inconclusive [inhibitor, single point]
COc1ccc(CN2C(=O)/C(=C/c3ccncc3)SC2=S)cc1 | inconclusive [inhibitor, single point]
COc1ccc(-c2ccc(OC)c(C3C4C=CCCC4(C)C(=O)N3Cc3ccccc3)c2)cc1OC (stereo not drawn) | inactive
COc1ccc(CCn2c(-c3ccco3)nc3nc4ccccc4nc32)cc1OC | inactive
Clc1ccc(-c2cn3cc(Cl)ccc3n2)cc1 | active: 12.6 µM
O=C(Nc1ccc(C(O)(C(F)(F)F)C(F)(F)F)cc1)c1ccc(Cl)c([N+](=O)[O-])c1 | inconclusive [inhibitor, single point]
O=C(Nc1ccc2c(c1)OCO2)c1ccc(Br)c(S(=O)(=O)N2CCCC2)c1 | inconclusive [inhibitor, single point]
C=C(C)C(=O)OCCOC(=O)C(=C)C | inactive
O=C(N/N=C\c1ccncc1)c1ccc(Br)s1 | inactive
C#CCOCCOCCOCCNc1nc(N2CCN(C(=O)[C@H](CCC(=O)O)n3cc(C(N)CO)nn3)CC2)nc(N2CCN(C(=O)[C@H](CCC(=O)O)n3cc(C(N)[C@H](C)CC)nn3)CC2)n1 (stereo partly drawn) | inactive
CCOC(=O)c1ccc(NCc2nc3ccccc3[nH]2)cc1 | inconclusive [inhibitor, single point]
COc1ccc(-c2[nH]ncc2-c2ccc(Cl)cc2)c(O)c1 | inconclusive [inhibitor, single point]
C/C(=C/c1ccccc1)C(=O)N1CCN(c2ccccc2F)CC1 | inactive
N#C/C(=C\c1cccnc1)c1ccc([N+](=O)[O-])cc1 | active: 12.6 µM
Cc1ccc(NC(=O)c2scc3c2CCCC3)cc1 | inconclusive [inhibitor, partial curve]

SMILES | Potency
Cc1cc(Nc2ccc(Br)cc2F)n2nc(C)nc2n1 | active: 7.94 µM
CCOC(=O)C1C(=O)NC(SCC(=O)Nc2nccs2)=C(C#N)C1c1ccccc1OCC (stereo not drawn) | inconclusive [inhibitor, single point]
CCOC(=O)COc1ccc(/C=C2\NC(=S)N(CC)C2=O)cc1 | inconclusive [inhibitor, partial curve, poor fit]
O=C1C(=O)N(Cc2ccc(Cl)c(Cl)c2)c2ccccc21 | inconclusive [inhibitor, single point]
CCOc1ccc(N/C=C/C(=O)c2ccccc2)c([N+](=O)[O-])c1 | active: 7.08 µM
COC(=O)c1sc2nc(SCC(=O)N(C)c3ccccc3)n(N)c(=O)c2c1C | inactive
Cc1cccnc1NC(=O)c1cccc(S(=O)(=O)N2CCN(c3ccc(F)cc3)CC2)c1 | inconclusive [inhibitor, single point]
CN(C(=O)Cn1cccc1C1=NC(c2ccccc2)CO1)c1ccccc1 (stereo not drawn) | inactive
COc1ccc(/C=N/NC(=O)c2cccnc2)cc1CN1CCOCC1 | inactive
O=C(Nc1ccc(Nc2ccccc2)cc1)c1ccc(Br)cc1 | inconclusive [inhibitor, single point]
Cc1cc(NC(=O)c2ccccc2)sc1C | inconclusive [inhibitor, full curve, poor fit]
CCCCC#CC1C=CC(OC(C)=O)C(COC(C)=O)O1 (stereo not drawn) | inconclusive [inhibitor, single point]
CCCC1=NN2C(=N)/C(=C\c3ccc(SCc4ccco4)o3)C(=O)N=C2S1 | inactive
O=C(Nc1ccc(Cl)cc1)c1ccc(-n2cccn2)c([N+](=O)[O-])c1 | inconclusive [inhibitor, single point]
CCCn1nnnc1NC(=O)c1cc(Br)ccc1OC | active: 5.62 µM
CCOc1ccc(C(C)=O)cc1COC(=O)CCc1cc(OC)c(OC)c(OC)c1 | inactive
CC(=O)C1=C(c2ccccc2)N(C(C)=O)n2c(C)nnc2S1 | active: 17.8 µM
O=C(Nc1ccc2[nH]ccc2c1)c1ccccc1 | inconclusive [inhibitor, single point]
Cc1ccc(-n2ncc3c(SCc4ccccc4)ncnc32)cc1 | inconclusive [inhibitor, single point]
CCOC(=O)c1sc2ncnc(N3CCN(CC)CC3)c2c1C | inactive
CCOC(=O)/C(=C/C=C1\Sc2cc(C)c(C)cc2N1CC)C(C)=O | inconclusive [inhibitor, single point]
O=C(O)c1cc2ccc3ccccc3c2oc1=O | inconclusive [inhibitor, single point]
O=C(N/N=C/c1ccncc1)c1cccs1 | inconclusive [activator, single point]
